{
  "source": "ChEMBL document CHEMBL4689842",
  "about": "“EUbOPEN Chemogenomics Library wave 1” (2021)",
  "format_in_all_cases": "toxicity, cell-based",
  "key": {"HEK-293T": {"system": "HEK-293T", "test": "Multiplex assay against HEK293T;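 as to Population Tubulin-Different-Phenotype (%): share of the cells with healthy nuclei that show this phenotype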", "settings": "human, 10 µM, compound concentration 10 uM", "summary_of_the_method": "(§1)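 Hoechst33342, BioTracker Green Microtubule Cytoskeleton Dye, MitoTracker Red and Annexin V Alexa Fluor 680 were added to live cells at seeding, and imaging on a CQ1 microscope at 37°C and 5% CO2 followed compound addition. Gating by CellPathfinder machine learning separated cells into Hoechst high-intensity objects or normal cells, then normal cells into healthy, pyknosed or fragmented nuclei, then pyknosed cells into mitotic or apoptotic. Per cents of healthy-nucleus cells are reported for the tubulin, mitochondrial-mass and membrane-permeability phenotypes.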"}, "Fibroblast": {"system": "Fibroblast", "test": "Multiplex assay against human fibroblast", "settings": "10 µM, compound concentration 10 uM", "summary_of_the_method": "as §1"}, "U2OS": {"system": "U2OS", "test": "Multiplex assay against U2OS", "settings": "human, 24 h, 10 µM, compound concentration 10 uM, replicate 2", "summary_of_the_method": "as §1"}},
  "note": "Some entries of the source have several records that differ or are many. They are shown here; other results are not. There may be further records. Results that share an entry are repeats (runs, samples, wells, individuals or studies).",
  "data": [
    {"smiles": "COc1cc(N2CCC(N(C)C)CC2)ccc1Nc1ncc(Cl)c(Nc2ccccc2P(C)(C)=O)n1", "values": [
      {"measurement": "Population Apoptotic (%)", "setting": "HEK-293T; 12 h, replicate 1", "value": "70% and 21%"},
      {"measurement": "Population Mitochondria Different-Phenotype (%)", "setting": "HEK-293T; 12 h, replicate 1", "value": "100% and 25%"},
      {"measurement": "Population Apoptotic (%)", "setting": "HEK-293T; 12 h, replicate 2", "value": "58% and 12%"},
      {"measurement": "Population Healthy Nuclei (%)", "setting": "HEK-293T; 12 h, replicate 2", "value": "24% and 79%"},
      {"measurement": "Population Pyknosed Nuclei (%)", "setting": "HEK-293T; 12 h, replicate 2", "value": "72% and 16%"},
      {"measurement": "Total Cell Count", "setting": "HEK-293T; 12 h, replicate 2", "value": "142 and 933"},
      {"measurement": "Population Apoptotic (%)", "setting": "HEK-293T; 24 h, replicate 2", "value": "79% and 24%"},
      {"measurement": "Population Healthy Nuclei (%)", "setting": "HEK-293T; 24 h, replicate 2", "value": "20% and 81%"},
      {"measurement": "Population Mitotic Cells (%)", "setting": "HEK-293T; 24 h, replicate 2", "value": "20% and 75%"},
      {"measurement": "Population Pyknosed Nuclei (%)", "setting": "HEK-293T; 24 h, replicate 2", "value": "72% and 13%"},
      {"measurement": "Total Cell Count", "setting": "HEK-293T; 24 h, replicate 2", "value": "149 and 899"},
      {"measurement": "Population Membrane Permeable-Phenotype (%)", "setting": "Fibroblast; 12 h, replicate 1", "value": "23% and 1%"},
      {"measurement": "Population Tubulin-Different-Phenotype (%)", "setting": "Fibroblast; 12 h, replicate 1", "value": "69% and 16%"},
      {"measurement": "Population Mitochondria Different-Phenotype (%)", "setting": "Fibroblast; 12 h, replicate 2", "value": "16% and 85%"},
      {"measurement": "Population Mitotic Cells (%)", "setting": "Fibroblast; 12 h, replicate 2", "value": "62% and 12%"},
      {"measurement": "Population Membrane Permeable-Phenotype (%)", "setting": "Fibroblast; 24 h, replicate 1", "value": "17% and 3%"},
      {"measurement": "Population Tubulin-Different-Phenotype (%)", "setting": "Fibroblast; 24 h, replicate 1", "value": "70% and 13%"},
      {"measurement": "Population Membrane Permeable-Phenotype (%)", "setting": "Fibroblast; 24 h, replicate 2", "value": "0% and 100%"},
      {"measurement": "Population Mitochondria Different-Phenotype (%)", "setting": "Fibroblast; 24 h, replicate 2", "value": "25% and 85%"},
      {"measurement": "Population Mitotic Cells (%)", "setting": "Fibroblast; 24 h, replicate 2", "value": "33% and 7%"},
      {"measurement": "Population Pyknosed Nuclei (%)", "setting": "Fibroblast; 24 h, replicate 2", "value": "17% and 58%"}
    ]},
    {"smiles": "CC(C)Oc1ccc(C(=O)N[C@H](CNC(=O)CN(C)C)Cc2ccc(-c3cn4cccc([C@H](C)O)c4n3)cc2)cc1Cl", "note": "[GSK-923295A]", "values": [
      {"measurement": "Population Membrane Permeable-Phenotype (%)", "setting": "HEK-293T; 12 h, replicate 1", "value": "33% and 0%"},
      {"measurement": "Population Mitochondria Different-Phenotype (%)", "setting": "HEK-293T; 12 h, replicate 1", "value": "23% and 100%"},
      {"measurement": "Population Mitotic Cells (%)", "setting": "HEK-293T; 12 h, replicate 1", "value": "66% and 6%"},
      {"measurement": "Total Cell Count", "setting": "HEK-293T; 12 h, replicate 1", "value": "516 and 143"},
      {"measurement": "Population Apoptotic (%)", "setting": "HEK-293T; 12 h, replicate 2", "value": "67% and 17%"},
      {"measurement": "Population Fragmented Nuclei (%)", "setting": "HEK-293T; 12 h, replicate 2", "value": "8% and 2%"},
      {"measurement": "Total Cell Count", "setting": "HEK-293T; 12 h, replicate 2", "value": "132 and 948"},
      {"measurement": "Population Mitotic Cells (%)", "setting": "HEK-293T; 24 h, replicate 1", "value": "7% and 58%"},
      {"measurement": "Total Cell Count", "setting": "HEK-293T; 24 h, replicate 1", "value": "145 and 508"},
      {"measurement": "Population Apoptotic (%)", "setting": "HEK-293T; 24 h, replicate 2", "value": "80% and 18%"},
      {"measurement": "Population Membrane Permeable-Phenotype (%)", "setting": "HEK-293T; 24 h, replicate 2", "value": "1% and 21%"},
      {"measurement": "Population Mitotic Cells (%)", "setting": "HEK-293T; 24 h, replicate 2", "value": "20% and 81%"},
      {"measurement": "Total Cell Count", "setting": "HEK-293T; 24 h, replicate 2", "value": "142 and 1095"},
      {"measurement": "Population Membrane Permeable-Phenotype (%)", "setting": "Fibroblast; 12 h, replicate 1", "value": "35% and 10%"},
      {"measurement": "Total Cell Count", "setting": "Fibroblast; 12 h, replicate 1", "value": "71 and 502"},
      {"measurement": "Population Fragmented Nuclei (%)", "setting": "Fibroblast; 12 h, replicate 2", "value": "55% and 9%"},
      {"measurement": "Population Hoechst High Intensity Objects (%)", "setting": "Fibroblast; 12 h, replicate 2", "value": "34% and 2%"},
      {"measurement": "Population Mitochondria Different-Phenotype (%)", "setting": "Fibroblast; 12 h, replicate 2", "value": "21% and 89%"},
      {"measurement": "Total Cell Count", "setting": "Fibroblast; 24 h, replicate 1", "value": "102 and 537"},
      {"measurement": "Population Fragmented Nuclei (%)", "setting": "Fibroblast; 24 h, replicate 2", "value": "54% and 11%"},
      {"measurement": "Population Hoechst High Intensity Objects (%)", "setting": "Fibroblast; 24 h, replicate 2", "value": "49% and 2%"},
      {"measurement": "Population Membrane Permeable-Phenotype (%)", "setting": "Fibroblast; 24 h, replicate 2", "value": "13% and 53%"}
    ]},
    {"smiles": "C[C@@H]1CN(c2cc(-c3nn(C)c4ccc(OC5(C)CC5)cc34)ncn2)C[C@H](C)O1", "note": "[MLi-2-NC]", "values": [
      {"measurement": "Population Tubulin-Different-Phenotype (%)", "setting": "HEK-293T; 12 h, replicate 1", "value": "1% and 8%"},
      {"measurement": "Population Tubulin-Different-Phenotype (%)", "setting": "HEK-293T; 24 h, replicate 1", "value": "3% and 17%"},
      {"measurement": "Population Tubulin-Different-Phenotype (%)", "setting": "HEK-293T; 24 h, replicate 2", "value": "7% and 23%"},
      {"measurement": "Population Membrane Permeable-Phenotype (%)", "setting": "Fibroblast; 12 h, replicate 1", "value": "13% and 2%"},
      {"measurement": "Population Tubulin-Different-Phenotype (%)", "setting": "Fibroblast; 12 h, replicate 1", "value": "19% and 1%"},
      {"measurement": "Population Pyknosed Nuclei (%)", "setting": "Fibroblast; 12 h, replicate 2", "value": "18% and 4%"},
      {"measurement": "Population Mitochondria Different-Phenotype (%)", "setting": "Fibroblast; 24 h, replicate 2", "value": "28% and 7%"},
      {"measurement": "Population Pyknosed Nuclei (%)", "setting": "Fibroblast; 24 h, replicate 2", "value": "25% and 8%"},
      {"measurement": "Population Apoptotic (%)", "setting": "U2OS", "value": "0% and 66%"},
      {"measurement": "Population Mitotic Cells (%)", "setting": "U2OS", "value": "100% and 33%"}
    ]}
  ]
}
